# Data taken from PubChem BioAssay AID1460 (National Center for Advancing Translational Sciences (NCATS), 2008).
# “And” between values parts separate entries of the source, which are not always exact repeats. Equal entries are not always repeated. Hit rate of the full screen: of about 270,000 compounds, about 5,800 (2.1%) were called active. Inconclusive results, whose numbers are uncertain, are shown with a selection of clear calls. The call rests on the fitted dose curve; in most records, active means well fitted inhibition curve with a large enough effect; inconclusive means small, poorly fitted or top-dose-only effect; inactive means flat fitted curve, though single readings scatter. Potencies beside an inconclusive call are fits to weak or partial responses and may not hold up.
# Target: Microtubule-associated protein tau (Homo sapiens) (UniProt P10636)
# UniProt P10636, sequence (P10636 whole entry, looked up): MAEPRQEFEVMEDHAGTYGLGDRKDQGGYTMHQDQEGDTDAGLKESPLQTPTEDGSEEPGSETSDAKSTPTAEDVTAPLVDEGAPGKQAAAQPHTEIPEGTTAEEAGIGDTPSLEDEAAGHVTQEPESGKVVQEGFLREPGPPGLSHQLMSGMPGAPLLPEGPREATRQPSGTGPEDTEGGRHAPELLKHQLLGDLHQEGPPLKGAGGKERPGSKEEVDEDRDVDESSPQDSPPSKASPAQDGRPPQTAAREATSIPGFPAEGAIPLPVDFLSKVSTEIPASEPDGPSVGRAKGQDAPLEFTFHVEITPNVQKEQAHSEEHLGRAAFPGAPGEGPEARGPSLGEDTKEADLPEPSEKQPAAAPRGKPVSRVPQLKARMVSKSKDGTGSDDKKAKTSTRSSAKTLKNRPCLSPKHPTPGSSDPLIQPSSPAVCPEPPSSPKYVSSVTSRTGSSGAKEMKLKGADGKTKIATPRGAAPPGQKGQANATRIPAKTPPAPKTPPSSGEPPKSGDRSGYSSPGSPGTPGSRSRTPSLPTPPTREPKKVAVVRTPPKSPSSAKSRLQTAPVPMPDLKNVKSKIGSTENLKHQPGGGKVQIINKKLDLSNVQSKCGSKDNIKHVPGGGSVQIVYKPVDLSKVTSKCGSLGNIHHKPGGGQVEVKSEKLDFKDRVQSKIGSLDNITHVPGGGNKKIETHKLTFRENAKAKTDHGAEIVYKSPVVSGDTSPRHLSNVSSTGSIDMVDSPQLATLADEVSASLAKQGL
# Experiment: qHTS for Inhibitors of Tau Fibril Formation, Thioflavin T Binding; further: nearly all actives have a fitted effect of over 55% in size
# Settings: recombinant tau K18 P301L (four-repeat tau fragment), heparin-induced fibrillization, ThT fluorescence; series mostly up to 57.4 µM; activity, negative = inhibition: at the top concentration
# Method in brief: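 Tau K18 P301L fragment (15 uM unlabeled plus 0.24 uM Alexa 594-labeled) in 100 mM sodium acetate pH 7 with compound, fibrillization induced by 20 uM heparin for 6 hr at 37 C. Thioflavin T (30 uM) added, fluorescence read after 1 hr (ex 450, em 510 nm).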
# On the % scale 0 is the no-effect control and ±100 the full control effect; potency means the concentration at half of the fitted maximal effect; tags describe the fitted curve by direction and shape.
SMILES,Potency,"activity, negative = inhibition"
Cc1cccc(/C=C/C(=O)c2cc(Br)ccc(=O)c2O)c1,active: 14.1 µM,
Cc1nn(C(=O)c2ccc([N+](=O)[O-])cc2)c(C)c1Br,"inconclusive: 39.8 µM [inhibitor, partial curve]",
Cn1cnnc1Sc1ccc(C(=O)NCCC(c2ccccc2)c2ccccc2)cc1[N+](=O)[O-],,inactive: -20.9%
CCn1c(COc2ccc3c(c2)CCCC3)nnc1SCC(=O)Nc1nccs1,,inactive: -16.8%
O=C1c2ccccc2C(=O)C1c1ccncc1,"inconclusive: 28.2 µM [inhibitor, partial curve]",
CCCCc1nn2c(=O)cc(COC(=O)c3cccc(NC(=O)c4cccs4)c3)nc2s1,"inconclusive: 0.708 µM [inhibitor, full curve, poor fit]",
C#CCNC(=O)C1=C[C@H](c2ccc(C(F)(F)F)cc2)[C@@H](CCCO)[C@H](OCC)O1,,inactive: 8.74%
COCC(C)NC(=O)c1noc2c1CCc1cc(OC)ccc1-2 (stereo not given),,inactive: -12.9%
CC[C@H]1OC(=O)C[C@@H](O)[C@H](C)[C@@H](O[C@@H]2O[C@H](C)C[C@H](N(C)C)[C@H]2O)[C@@H](CC=O)C[C@@H](C)C(=O)C=C[C@]2(C)O[C@H]2[C@@H]1C,"inconclusive: 28.2 µM [inhibitor, single point]",
N#Cc1nc(-c2ccc(OCc3ccccc3Cl)cc2)oc1NCCCn1ccnc1,"inconclusive: 5.01 µM [inhibitor, single point]",
Cc1c(CCOC(=O)C23CC4CC(CC(C)(C4)C2)C3)sc[n+]1CC(=O)c1ccccc1,"inconclusive: 44.7 µM [inhibitor, single point]",
Cc1cc([N+](=O)[O-])ccc1NCc1ccccc1,"inconclusive: 25.1 µM [inhibitor, partial curve, poor fit]",
O=C(CCCCCN1C(=O)c2ccccc2C1=O)Nc1ccc2c(c1)OCCO2,"inconclusive: 20 µM [inhibitor, partial curve]",
COc1ccc(C(C[N+](=O)[O-])C2(c3ccc(OC)c(OC)c3)C(=O)c3ccccc3C2=O)cc1 (stereo not given),"inconclusive: 25.1 µM [inhibitor, partial curve]",
NC(=O)c1ccc(N=Nc2c(-c3ccccc3)[nH]n(-c3ccccc3)c2=O)cc1,"inconclusive: 2.24 µM [inhibitor, full curve]",
COC(=O)CCC(=O)OC1(C)C(=O)C2=CN(C3CC3)C(c3ccc(OC)cc3)=CC2=C(Br)C1=O (stereo not given),"inconclusive: 8.91 µM [inhibitor, single point]",
N#Cc1cnn2ccc(-c3cc(N4CCOCC4)ccc3[N+](=O)[O-])nc12,"inconclusive: 14.1 µM [inhibitor, partial curve, poor fit]",
Cc1ccc(S(=O)(=O)c2[nH]c(-c3ccccc3)nc2SC(C)C(=O)O)cc1 (stereo not given),,inactive: -1.29%
COc1cccc(OC)c1C(=O)NC(=S)N1CCN(c2ccc(C(F)(F)F)cc2[N+](=O)[O-])CC1,"inconclusive: 10 µM [inhibitor, partial curve]",
COc1ccc(N2CCN(CCCNC(=O)c3nnc(Cc4ccccc4Cl)o3)CC2)cc1,"inconclusive: 31.6 µM [inhibitor, single point]",

SMILES,Potency,"activity, negative = inhibition"
Cc1cc(C)n2c(Nc3ccc4c(c3)OCCO4)c(-c3ccccc3)nc2n1,"inconclusive: 31.6 µM [inhibitor, partial curve, poor fit]",
CCS(=O)(=O)N1CC(=O)N(c2cc(C)cc(C)c2)C(C)(C(=O)NC2CCCCC2)C1 (stereo not given),,inactive: 10.9%
CN(C)S(=O)(=O)N1CCN(c2ccc([N+](=O)[O-])cc2)CC1,"inconclusive: 12.6 µM [inhibitor, partial curve]",
COc1cc2c(cc1OC)C(C)N(C(=O)c1cc3c(=O)oc4ccc(C)cc4c3s1)CC2 (stereo not given),"inconclusive: 3.98 µM [inhibitor, full curve]",
O=C(N/N=C/c1cc(Br)c(O)c(Br)c1)c1cccc(C(F)(F)F)c1,"inconclusive: 28.2 µM [inhibitor, partial curve]",
O=C(N/N=C/C(Cl)=C/c1ccc([N+](=O)[O-])cc1)C(=O)Nc1cccc(C(=O)O)c1,active: 3.55 µM,
CC(=O)c1ccc(NC(=O)c2cc3c([nH]c2=O)CC(c2ccccc2)CC3=O)cc1 (stereo not given),"inconclusive: 8.91 µM [inhibitor, partial curve, poor fit]",
C/C(=N\NC(=O)COc1ccc([N+](=O)[O-])cc1)C(C)(C)C,"inconclusive: 44.7 µM [inhibitor, single point]",
O=c1c2sc3ccccc3c2n(Cc2cccc(C(F)(F)F)c2)c(=O)n1-c1ccccc1,,inactive: -6.65%
Cc1ccsc1C(=O)Nc1ccc(O)c(-c2nc3ccccc3s2)c1,"inconclusive: 6.31 µM [inhibitor, partial curve]",
CC(C)Oc1ccc(CNC(=O)CN2C(=O)c3cccnc3Oc3ccc(Cl)cc32)cc1,,inactive: 1.16%
CN(C)c1ccc(NS(=O)(=O)c2ccc(-c3csnn3)cc2)cc1,,inactive: 13%
Cc1ccc2nc(N(CCN(C)C)C(=O)c3cc(Cl)sc3Cl)sc2c1,"inconclusive: 15.8 µM [inhibitor, partial curve]",
CC(C)CCSc1nc(N2CCOCC2)c2c(c1C#N)CC(C)(C)OC2,"inconclusive: 28.2 µM [inhibitor, single point]",
O=C(CSc1nnc(SCc2ccccc2)s1)N/N=C/C=C/c1ccco1,"inconclusive: 35.5 µM [inhibitor, partial curve]",
Oc1c(Cl)cc(Cl)c2cccnc12,"inconclusive: 12.6 µM [inhibitor, partial curve] and inconclusive: 31.6 µM [inhibitor, partial curve]",
Cc1ccc(NC(=O)CSc2nnc(-c3cc4occc4n3C)n2-c2ccccc2C)c(C)c1,,inactive: -0.403%
CC(=O)c1sc(Nc2nc3ccc(F)cc3s2)nc1C,"inconclusive: 12.6 µM [inhibitor, partial curve]",
CCNC(=S)N/N=C(\C)c1ccc2ccccc2c1OC(F)F,,inactive: -17.4%
FC(F)(F)c1cccc(N2CCN(c3nc4ccccc4n4cnnc34)CC2)c1,"inconclusive: 3.55 µM [inhibitor, full curve]",
